Experimental data: PMC6648895
These are yes or no findings as the source states them, for the method shown. For some of these results: Binding seen in cells or lysates may run through a third protein. Some binding calls cover weakened binding; strength is not graded here. Tags and fused reporters may be left off the sequences shown. One block for each binder: values may come before it.

Chains of the proteins cited; added tags and fusions are not shown.
UniProt P04650: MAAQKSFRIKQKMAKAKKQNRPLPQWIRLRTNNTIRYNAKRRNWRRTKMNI
UniProt P0CX27: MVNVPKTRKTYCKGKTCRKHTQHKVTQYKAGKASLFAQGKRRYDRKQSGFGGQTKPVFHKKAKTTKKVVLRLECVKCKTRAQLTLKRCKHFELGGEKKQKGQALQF

Experiments:
[1] = biological target: T1, Rps6, Gal4 DNA-binding domain fusion (full-length) (S. cerevisiae) (UniProt P0CX37); assay: two-hybrid; reporter strain PJ69-4A; bait fused to Gal4 DNA-binding domain (c-Myc), prey fused to Gal4 activation domain (HA); HIS3 reporter for weak, ADE2 reporter for strong interactions; plates 30°C, 3 days
T1 sequence: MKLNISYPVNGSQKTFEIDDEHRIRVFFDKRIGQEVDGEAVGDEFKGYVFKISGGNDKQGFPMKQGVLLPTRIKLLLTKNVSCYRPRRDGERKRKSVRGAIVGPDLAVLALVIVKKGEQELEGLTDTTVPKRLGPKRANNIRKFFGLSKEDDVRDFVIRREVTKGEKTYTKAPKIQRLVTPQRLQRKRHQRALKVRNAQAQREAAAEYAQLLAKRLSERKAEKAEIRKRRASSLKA

[2] = biological target: Rpl39, Gal4 DNA-binding domain fusion (S. cerevisiae) (UniProt P04650); assay: as above
[3] = biological target: Rpl42, Gal4 DNA-binding domain fusion (S. cerevisiae) (UniProt P0CX27); assay: as above
[4] = biological target: T2, Nap1, Gal4 activation domain fusion (full-length) (S. cerevisiae) (UniProt P25293); assay: two-hybrid; competition: PJ69-4A carrying high-copy URA3 plasmid pADH195-RPS6A or empty YEplac195, co-transformed with bait and prey plasmids; media additionally lacking uracil
T2 sequence: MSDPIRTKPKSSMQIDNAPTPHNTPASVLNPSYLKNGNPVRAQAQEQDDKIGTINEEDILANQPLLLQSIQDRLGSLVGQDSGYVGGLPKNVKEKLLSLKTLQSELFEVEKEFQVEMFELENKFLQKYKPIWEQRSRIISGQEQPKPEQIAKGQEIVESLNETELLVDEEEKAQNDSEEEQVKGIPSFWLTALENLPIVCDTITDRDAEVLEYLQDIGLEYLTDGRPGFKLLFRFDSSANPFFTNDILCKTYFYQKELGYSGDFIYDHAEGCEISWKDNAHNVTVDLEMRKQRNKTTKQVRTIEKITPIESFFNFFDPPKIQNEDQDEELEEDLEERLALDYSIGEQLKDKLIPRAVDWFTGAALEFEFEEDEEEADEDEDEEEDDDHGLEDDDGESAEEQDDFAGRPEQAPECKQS

[5] = biological target: T3, Nap1-TAP (S. cerevisiae) (UniProt P25293); assay: co-IP; Nap1-TAP Rps6a-Flag split purification from yeast lysate: IgG Sepharose, TEV elution, then Calmodulin Sepharose or Anti-FLAG M2 Affinity Gel; Western blotting of eluates
T3 sequence: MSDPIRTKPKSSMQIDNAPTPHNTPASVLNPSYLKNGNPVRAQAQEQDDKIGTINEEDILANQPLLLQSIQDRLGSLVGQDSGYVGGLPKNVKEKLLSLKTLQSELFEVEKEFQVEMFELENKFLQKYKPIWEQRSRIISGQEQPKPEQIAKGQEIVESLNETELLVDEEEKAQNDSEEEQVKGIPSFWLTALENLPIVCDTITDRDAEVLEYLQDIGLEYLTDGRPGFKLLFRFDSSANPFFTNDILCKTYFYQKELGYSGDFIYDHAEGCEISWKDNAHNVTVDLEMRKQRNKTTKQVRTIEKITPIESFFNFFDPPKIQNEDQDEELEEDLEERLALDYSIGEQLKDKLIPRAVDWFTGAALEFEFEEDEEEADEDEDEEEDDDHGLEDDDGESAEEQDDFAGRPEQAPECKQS

[6] = biological target: T4, Rps2, Gal4 DNA-binding domain fusion (S. cerevisiae) (UniProt P25443); assay: two-hybrid; reporter strain PJ69-4A; bait fused to Gal4 DNA-binding domain (c-Myc), prey fused to Gal4 activation domain (HA); HIS3 reporter for weak, ADE2 reporter for strong interactions; plates 30°C, 3 days
T4 sequence: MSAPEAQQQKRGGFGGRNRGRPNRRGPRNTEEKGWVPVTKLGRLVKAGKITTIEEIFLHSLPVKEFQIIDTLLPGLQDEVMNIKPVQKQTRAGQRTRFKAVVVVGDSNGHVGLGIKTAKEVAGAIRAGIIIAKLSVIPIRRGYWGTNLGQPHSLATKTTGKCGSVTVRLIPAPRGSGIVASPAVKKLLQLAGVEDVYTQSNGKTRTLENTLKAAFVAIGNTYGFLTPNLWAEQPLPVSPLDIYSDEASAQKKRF

[7] = biological target: T5, Flag-Rps6 (S. cerevisiae) (UniProt P0CX37); assay: pull-down; proteins co-expressed in E. coli; two-step affinity purification from the lysate, Ni-NTA agarose (300 mM imidazole elution) then Anti-FLAG M2 Affinity Gel (FLAG peptide elution); 50 mM Tris-HCl pH 7.5, 150 mM NaCl; Coomassie-stained gel
T5 sequence: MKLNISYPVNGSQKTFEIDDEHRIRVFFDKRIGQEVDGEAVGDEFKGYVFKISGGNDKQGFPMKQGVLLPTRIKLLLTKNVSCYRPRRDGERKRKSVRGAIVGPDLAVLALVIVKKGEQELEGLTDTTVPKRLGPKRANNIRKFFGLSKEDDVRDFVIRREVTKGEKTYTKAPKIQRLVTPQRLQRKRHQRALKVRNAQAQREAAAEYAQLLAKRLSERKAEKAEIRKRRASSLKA

[8] = biological target: T6, Rps2-His6 (S. cerevisiae) (UniProt P25443); assay: as above
T6 sequence: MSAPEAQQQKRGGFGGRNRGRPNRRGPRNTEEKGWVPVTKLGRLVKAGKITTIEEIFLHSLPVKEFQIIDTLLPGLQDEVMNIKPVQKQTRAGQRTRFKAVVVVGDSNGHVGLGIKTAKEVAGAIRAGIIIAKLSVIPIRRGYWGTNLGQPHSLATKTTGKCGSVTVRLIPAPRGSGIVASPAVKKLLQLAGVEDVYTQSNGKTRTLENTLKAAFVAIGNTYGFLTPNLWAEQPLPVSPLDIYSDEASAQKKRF

B1: Nap1 residues 1–365, Gal4 activation domain fusion (domain or fragment, UniProt P25293 1-365)
chain: MSDPIRTKPKSSMQIDNAPTPHNTPASVLNPSYLKNGNPVRAQAQEQDDKIGTINEEDILANQPLLLQSIQDRLGSLVGQDSGYVGGLPKNVKEKLLSLKTLQSELFEVEKEFQVEMFELENKFLQKYKPIWEQRSRIISGQEQPKPEQIAKGQEIVESLNETELLVDEEEKAQNDSEEEQVKGIPSFWLTALENLPIVCDTITDRDAEVLEYLQDIGLEYLTDGRPGFKLLFRFDSSANPFFTNDILCKTYFYQKELGYSGDFIYDHAEGCEISWKDNAHNVTVDLEMRKQRNKTTKQVRTIEKITPIESFFNFFDPPKIQNEDQDEELEEDLEERLALDYSIGEQLKDKLIPRAVDWFTGAAL
binding [1]: no binding | binding [2]: no binding | binding [3]: no binding

B4: Tsr4 ΔN40 (residues 41–408), Gal4 activation domain fusion (domain or fragment, UniProt P25040 41-408)
chain: VEDSFIGGEPKWLHPDSEPPAELLKCGACKSADNMKLLLQAFSPLDDEQMSAIQQRLGINNMSYINPQDDRVLYVFLCTECQRKGNSVRCIRGVKKNKNVDSLSEKMASTSLEKDFQINPFDLSNNSDSKCNAFSSNPFGGANANPFGADSINSNISQSKDEGKKKESATVSAKTARKLHDLQKDKEYDGNKCFKSCLLYVEEETFKNKKPAHLQLPKNLKIDKEALDLTGDEDLEKDPIKLDPRTEKLSKFLDDDTFQKFQEVVGYNPLQVLRYDLGGKPLLYAETKVDILSTVPRPGYNPSSQRIFEMQLMPKMIFDLEEVVSVDNGMEWGTILVFTDVENYMPEFDEHGVGYVEECVKVQWESRT
binding [6]: no binding

B5: Tsr4 ΔN19 (residues 20–408), Gal4 activation domain fusion (domain or fragment, UniProt P25040 20-408)
chain: KPGDVFLAFVDAPVKETDDILVEDSFIGGEPKWLHPDSEPPAELLKCGACKSADNMKLLLQAFSPLDDEQMSAIQQRLGINNMSYINPQDDRVLYVFLCTECQRKGNSVRCIRGVKKNKNVDSLSEKMASTSLEKDFQINPFDLSNNSDSKCNAFSSNPFGGANANPFGADSINSNISQSKDEGKKKESATVSAKTARKLHDLQKDKEYDGNKCFKSCLLYVEEETFKNKKPAHLQLPKNLKIDKEALDLTGDEDLEKDPIKLDPRTEKLSKFLDDDTFQKFQEVVGYNPLQVLRYDLGGKPLLYAETKVDILSTVPRPGYNPSSQRIFEMQLMPKMIFDLEEVVSVDNGMEWGTILVFTDVENYMPEFDEHGVGYVEECVKVQWESRT
binding [6]: binds

B6: Nap1 residues 75–417, Gal4 activation domain fusion (domain or fragment, UniProt P25293 75-417)
chain: GSLVGQDSGYVGGLPKNVKEKLLSLKTLQSELFEVEKEFQVEMFELENKFLQKYKPIWEQRSRIISGQEQPKPEQIAKGQEIVESLNETELLVDEEEKAQNDSEEEQVKGIPSFWLTALENLPIVCDTITDRDAEVLEYLQDIGLEYLTDGRPGFKLLFRFDSSANPFFTNDILCKTYFYQKELGYSGDFIYDHAEGCEISWKDNAHNVTVDLEMRKQRNKTTKQVRTIEKITPIESFFNFFDPPKIQNEDQDEELEEDLEERLALDYSIGEQLKDKLIPRAVDWFTGAALEFEFEEDEEEADEDEDEEEDDDHGLEDDDGESAEEQDDFAGRPEQAPECKQS
binding [1]: binds | binding [2]: binds | binding [3]: binds

B8: His6-Nap1 (protein, UniProt P25293 1-417)
chain: MSDPIRTKPKSSMQIDNAPTPHNTPASVLNPSYLKNGNPVRAQAQEQDDKIGTINEEDILANQPLLLQSIQDRLGSLVGQDSGYVGGLPKNVKEKLLSLKTLQSELFEVEKEFQVEMFELENKFLQKYKPIWEQRSRIISGQEQPKPEQIAKGQEIVESLNETELLVDEEEKAQNDSEEEQVKGIPSFWLTALENLPIVCDTITDRDAEVLEYLQDIGLEYLTDGRPGFKLLFRFDSSANPFFTNDILCKTYFYQKELGYSGDFIYDHAEGCEISWKDNAHNVTVDLEMRKQRNKTTKQVRTIEKITPIESFFNFFDPPKIQNEDQDEELEEDLEERLALDYSIGEQLKDKLIPRAVDWFTGAALEFEFEEDEEEADEDEDEEEDDDHGLEDDDGESAEEQDDFAGRPEQAPECKQS
binding [7]: binds

The next lines start with the values.

binding [4]: binds
B2: Rps6 overexpressed from a multicopy plasmid (pADH195-RPS6A) (protein, UniProt P0CX37 1-236)
chain: MKLNISYPVNGSQKTFEIDDEHRIRVFFDKRIGQEVDGEAVGDEFKGYVFKISGGNDKQGFPMKQGVLLPTRIKLLLTKNVSCYRPRRDGERKRKSVRGAIVGPDLAVLALVIVKKGEQELEGLTDTTVPKRLGPKRANNIRKFFGLSKEDDVRDFVIRREVTKGEKTYTKAPKIQRLVTPQRLQRKRHQRALKVRNAQAQREAAAEYAQLLAKRLSERKAEKAEIRKRRASSLKA

binding [5]: binds
B3: Rps6a-Flag (protein, UniProt P0CX37 1-236)
chain: MKLNISYPVNGSQKTFEIDDEHRIRVFFDKRIGQEVDGEAVGDEFKGYVFKISGGNDKQGFPMKQGVLLPTRIKLLLTKNVSCYRPRRDGERKRKSVRGAIVGPDLAVLALVIVKKGEQELEGLTDTTVPKRLGPKRANNIRKFFGLSKEDDVRDFVIRREVTKGEKTYTKAPKIQRLVTPQRLQRKRHQRALKVRNAQAQREAAAEYAQLLAKRLSERKAEKAEIRKRRASSLKA

binding [6]: no binding
B7: Tsr4 1–400, Gal4 activation domain fusion (domain or fragment, UniProt P25040 1-400)
chain: MSKIEELPPSDTDDHSYSSKPGDVFLAFVDAPVKETDDILVEDSFIGGEPKWLHPDSEPPAELLKCGACKSADNMKLLLQAFSPLDDEQMSAIQQRLGINNMSYINPQDDRVLYVFLCTECQRKGNSVRCIRGVKKNKNVDSLSEKMASTSLEKDFQINPFDLSNNSDSKCNAFSSNPFGGANANPFGADSINSNISQSKDEGKKKESATVSAKTARKLHDLQKDKEYDGNKCFKSCLLYVEEETFKNKKPAHLQLPKNLKIDKEALDLTGDEDLEKDPIKLDPRTEKLSKFLDDDTFQKFQEVVGYNPLQVLRYDLGGKPLLYAETKVDILSTVPRPGYNPSSQRIFEMQLMPKMIFDLEEVVSVDNGMEWGTILVFTDVENYMPEFDEHGVGYVEECV

binding [8]: binds
B9: Tsr4-Flag (protein, UniProt P25040 1-408)
chain: MSKIEELPPSDTDDHSYSSKPGDVFLAFVDAPVKETDDILVEDSFIGGEPKWLHPDSEPPAELLKCGACKSADNMKLLLQAFSPLDDEQMSAIQQRLGINNMSYINPQDDRVLYVFLCTECQRKGNSVRCIRGVKKNKNVDSLSEKMASTSLEKDFQINPFDLSNNSDSKCNAFSSNPFGGANANPFGADSINSNISQSKDEGKKKESATVSAKTARKLHDLQKDKEYDGNKCFKSCLLYVEEETFKNKKPAHLQLPKNLKIDKEALDLTGDEDLEKDPIKLDPRTEKLSKFLDDDTFQKFQEVVGYNPLQVLRYDLGGKPLLYAETKVDILSTVPRPGYNPSSQRIFEMQLMPKMIFDLEEVVSVDNGMEWGTILVFTDVENYMPEFDEHGVGYVEECVKVQWESRT
